Some of the results follow. These are noisy estimates, calculated here from bound and input reads.

For the assay, the target named is T1, Pho4 (S. cerevisiae) (UniProt P07270).
T1 sequence: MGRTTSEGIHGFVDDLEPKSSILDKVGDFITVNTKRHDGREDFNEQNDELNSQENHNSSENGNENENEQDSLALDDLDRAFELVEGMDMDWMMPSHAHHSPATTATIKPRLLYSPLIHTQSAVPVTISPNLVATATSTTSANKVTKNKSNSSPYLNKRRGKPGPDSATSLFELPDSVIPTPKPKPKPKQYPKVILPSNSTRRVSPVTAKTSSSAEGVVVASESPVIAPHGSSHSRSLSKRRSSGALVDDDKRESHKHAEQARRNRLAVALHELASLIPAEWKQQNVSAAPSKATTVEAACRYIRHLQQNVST
The experiment in a line: relative binding free energy (BET-seq); higher = weaker binding. The settings on record: reference: library average.
On to CTTTGCACGTGGTGTC, for which the “relative binding free energy” value is -0.13 kcal/mol.

Consider AGAAGCACGTGGTTCG, for which the “relative binding free energy” value was -0.05 kcal/mol.

Turning to GTTGTCACGTGGTGTA, the “relative binding free energy” value came out at 0.05 kcal/mol.

Take TAAAACACGTGTGATG: the “relative binding free energy” value was 0.05 kcal/mol.

Regarding TAATGCACGTGGTGGA, the “relative binding free energy” value is -0.15 kcal/mol.

Consider CGTGTCACGTGTGTGA, for which the “relative binding free energy” value was determined as 0.05 kcal/mol.

As for AGTTCCACGTGTTGGT, the “relative binding free energy” value came to 0.08 kcal/mol.

Regarding TTGTGCACGTGTTCTG, the “relative binding free energy” value was -0.05 kcal/mol.

Regarding AATGGCACGTGGGATT, the “relative binding free energy” value was -0.08 kcal/mol.

For the sequence GTAGGCACGTGAAGGT, the “relative binding free energy” value amounted to 0.2 kcal/mol.

AATTTCACGTGGATTT: the “relative binding free energy” value worked out at 0.33 kcal/mol.

For TTAATCACGTGGCGTA, the “relative binding free energy” value was 0.13 kcal/mol.

As to TAGTTCACGTGAGGTC, the “relative binding free energy” value is 0.51 kcal/mol.

With ATTTGCACGTGCATGA, the “relative binding free energy” value stood at 0.03 kcal/mol.

For the sequence CTTGGCACGTGTCATT, the “relative binding free energy” value was -0.06 kcal/mol.

In the case of AGGGGCACGTGTGGCG, the “relative binding free energy” value was -0.07 kcal/mol.

For TGGTACACGTGGCTGA, the “relative binding free energy” value was -0.11 kcal/mol.

GTGCGCACGTGTCGTT: the “relative binding free energy” value amounted to 0.05 kcal/mol.

In the case of GTGGACACGTGGCGGT, the “relative binding free energy” value is -0.1 kcal/mol.

TTTAGCACGTGGTAGA: the “relative binding free energy” value is -0.17 kcal/mol.

Take TTATTCACGTGCAAGT: the “relative binding free energy” value was 0.24 kcal/mol.

Consider GAAGTCACGTGTAATG, for which the “relative binding free energy” value was determined as 0.3 kcal/mol.

As to TGGGCCACGTGAAAGT, the “relative binding free energy” value stood at 0.26 kcal/mol.

Turning to TTGAGCACGTGGTTTG, the “relative binding free energy” value is -0.08 kcal/mol.

Turning to CGGGACACGTGAATGG, the “relative binding free energy” value is 0.24 kcal/mol.

Take CTGATCACGTGAGTGT: the “relative binding free energy” value stood at 0.29 kcal/mol.

Turning to CAGGGCACGTGGGGTA, the “relative binding free energy” value was -0.31 kcal/mol.

As to AGAGGCACGTGAAAGG, the “relative binding free energy” value is 0.01 kcal/mol.

As to AAGTTCACGTGTCGGC, the “relative binding free energy” value was found to be 0.31 kcal/mol.

Take TTGGGCACGTGGGGGC: the “relative binding free energy” value was -0.11 kcal/mol.

As to ATTGACACGTGCGAGT, the “relative binding free energy” value turned out to be 0.04 kcal/mol.

For GTGTACACGTGTTTTT, the “relative binding free energy” value was 0.14 kcal/mol.

As to CTTTTCACGTGATGGT, the “relative binding free energy” value was found to be 0.41 kcal/mol.

For GGTTCCACGTGAGTTG, the “relative binding free energy” value was 0.3 kcal/mol.

Regarding CGGGACACGTGAGTGT, the “relative binding free energy” value came to 0.23 kcal/mol.

With GTTTGCACGTGGCAAT, the “relative binding free energy” value was -0.01 kcal/mol.

Regarding TTTGACACGTGGTTAT, the “relative binding free energy” value was -0.04 kcal/mol.

For TTCTGCACGTGCTAGG, the “relative binding free energy” value is -0.06 kcal/mol.

On to TTTGACACGTGTCGCT, for which the “relative binding free energy” value stood at 0.01 kcal/mol.

Take GCGGACACGTGGGGAA: the “relative binding free energy” value is -0.07 kcal/mol.

As to GTTGACACGTGTAGGC, the “relative binding free energy” value came to 0.2 kcal/mol.

As for TTTGACACGTGTAGAT, the “relative binding free energy” value stood at 0.14 kcal/mol.

As for ATAGACACGTGTGGCT, the “relative binding free energy” value came out at 0.02 kcal/mol.

For the sequence TTAGGCACGTGTAATA, the “relative binding free energy” value was -0.04 kcal/mol.

For the sequence AGTATCACGTGTTAAT, the “relative binding free energy” value turned out to be 0.07 kcal/mol.

In the case of GGGGTCACGTGGAATG, the “relative binding free energy” value worked out at 0.13 kcal/mol.

On to TGAATCACGTGGCGTT, for which the “relative binding free energy” value was 0.12 kcal/mol.

As to AGTTGCACGTGTGCTT, the “relative binding free energy” value was determined as 0.09 kcal/mol.

Take GGAGTCACGTGCTTTT: the “relative binding free energy” value is 0.22 kcal/mol.

As for TATGTCACGTGGGCAA, the “relative binding free energy” value was -0.09 kcal/mol.

For CTTTACACGTGAGGGG, the “relative binding free energy” value is 0.3 kcal/mol.

Consider GTGGACACGTGGATTT, for which the “relative binding free energy” value was determined as 0.11 kcal/mol.

Regarding TTCTTCACGTGTTGCT, the “relative binding free energy” value turned out to be 0.19 kcal/mol.

On to AGCTTCACGTGAGGGG, for which the “relative binding free energy” value came to 0.4 kcal/mol.

For the sequence CTAGTCACGTGTCGGT, the “relative binding free energy” value was 0.09 kcal/mol.

On to GGTCACACGTGGGTTA, for which the “relative binding free energy” value was -0.15 kcal/mol.

Consider GAGGGCACGTGTATGG, for which the “relative binding free energy” value was determined as 0.08 kcal/mol.

With GTCTCCACGTGTGTGG, the “relative binding free energy” value was -0.04 kcal/mol.

As for TTTGGCACGTGTTAAT, the “relative binding free energy” value turned out to be 0 kcal/mol.

As for AGAAGCACGTGTAGGA, the “relative binding free energy” value is -0.06 kcal/mol.

As for TTGGGCACGTGAACTG, the “relative binding free energy” value is 0.11 kcal/mol.

For the sequence ATTATCACGTGCGGGT, the “relative binding free energy” value came out at 0.14 kcal/mol.

On to GGGTTCACGTGGTGGT, for which the “relative binding free energy” value came out at 0.35 kcal/mol.

In the case of GTTTTCACGTGATGTC, the “relative binding free energy” value was determined as 0.29 kcal/mol.

On to TTGCTCACGTGGGGCA, for which the “relative binding free energy” value was 0.06 kcal/mol.

Turning to TGTTGCACGTGTCGGC, the “relative binding free energy” value is 0.05 kcal/mol.

On to TCGTACACGTGTTGTT, for which the “relative binding free energy” value was 0.05 kcal/mol.

Take GGCGGCACGTGCAGAG: the “relative binding free energy” value was -0.06 kcal/mol.

Turning to TGGAGCACGTGTAGGC, the “relative binding free energy” value is -0.04 kcal/mol.

For the sequence CAAGACACGTGTTGGA, the “relative binding free energy” value was found to be 0.17 kcal/mol.

For the sequence AAGTACACGTGCGTTG, the “relative binding free energy” value was 0.13 kcal/mol.

As for TGGTCCACGTGGTGCG, the “relative binding free energy” value was -0.06 kcal/mol.

Take GGAGACACGTGAGGCG: the “relative binding free energy” value was 0.12 kcal/mol.

For the sequence GAGTCCACGTGGTGTT, the “relative binding free energy” value was found to be 0.07 kcal/mol.

Consider ATCGTCACGTGCGGGG, for which the “relative binding free energy” value is 0.05 kcal/mol.

Turning to TATTACACGTGATTTG, the “relative binding free energy” value was 0.18 kcal/mol.

As to ATAAGCACGTGGAGCG, the “relative binding free energy” value was -0.08 kcal/mol.

With GAGGGCACGTGTGAGG, the “relative binding free energy” value was 0.1 kcal/mol.

For AGGGTCACGTGATTTC, the “relative binding free energy” value came out at 0.22 kcal/mol.

In the case of GTGTACACGTGGGTCG, the “relative binding free energy” value was -0.18 kcal/mol.

Turning to TTGAACACGTGGCATT, the “relative binding free energy” value was 0.01 kcal/mol.

AGTAACACGTGCGTGT: the “relative binding free energy” value was -0.16 kcal/mol.

For GTTAGCACGTGATGCA, the “relative binding free energy” value was found to be 0.12 kcal/mol.

As to TATAGCACGTGTGGTT, the “relative binding free energy” value is -0.04 kcal/mol.

As to TATATCACGTGTCGGT, the “relative binding free energy” value was 0.17 kcal/mol.

TTTGTCACGTGCATAA: the “relative binding free energy” value was -0.01 kcal/mol.

As to GTGGACACGTGTGGAT, the “relative binding free energy” value was -0.04 kcal/mol.

Turning to GATGGCACGTGAGGGG, the “relative binding free energy” value worked out at 0.1 kcal/mol.

As to CGGGGCACGTGTCGAG, the “relative binding free energy” value is -0.18 kcal/mol.

In the case of ATGCTCACGTGTTTAT, the “relative binding free energy” value amounted to 0.18 kcal/mol.

Turning to GAATTCACGTGTTTAG, the “relative binding free energy” value came out at 0.35 kcal/mol.

Consider TGGCTCACGTGGGGTT, for which the “relative binding free energy” value amounted to 0.13 kcal/mol.

Turning to TGTTTCACGTGTGAGT, the “relative binding free energy” value came to 0.36 kcal/mol.

For the sequence GTGGCCACGTGAGGTA, the “relative binding free energy” value was 0.22 kcal/mol.

For the sequence ACGGCCACGTGGAGGG, the “relative binding free energy” value was -0.04 kcal/mol.

In the case of TCTATCACGTGGATGG, the “relative binding free energy” value was found to be 0.27 kcal/mol.

In the case of AGGTGCACGTGCTGTG, the “relative binding free energy” value is -0.03 kcal/mol.

With CGGGGCACGTGCTTGG, the “relative binding free energy” value was -0.26 kcal/mol.

Turning to TGTCCCACGTGGGTTG, the “relative binding free energy” value is -0.16 kcal/mol.

In the case of ACTCTCACGTGGTGGG, the “relative binding free energy” value is 0.07 kcal/mol.

Turning to AAGGGCACGTGTTGGG, the “relative binding free energy” value was -0.13 kcal/mol.

On to ATATTCACGTGAACGT, for which the “relative binding free energy” value stood at 0.25 kcal/mol.

Turning to TTAGTCACGTGGAGGC, the “relative binding free energy” value is -0.05 kcal/mol.

As to GTGGGCACGTGGTCCT, the “relative binding free energy” value is -0.09 kcal/mol.

In the case of ATTGACACGTGATGGG, the “relative binding free energy” value was 0.13 kcal/mol.

GAAGGCACGTGGAGGC: the “relative binding free energy” value was -0.02 kcal/mol.

For the sequence TGGTGCACGTGGCTGT, the “relative binding free energy” value is -0.23 kcal/mol.

Regarding TCTTTCACGTGGGGTC, the “relative binding free energy” value is 0.02 kcal/mol.

Consider TCTGGCACGTGTATTT, for which the “relative binding free energy” value stood at 0.1 kcal/mol.

Consider TATTTCACGTGCGTTA, for which the “relative binding free energy” value came out at 0.08 kcal/mol.

Regarding GACGTCACGTGGGGTT, the “relative binding free energy” value came out at 0.06 kcal/mol.

For the sequence TTAGCCACGTGGCTGG, the “relative binding free energy” value is -0.11 kcal/mol.

For the sequence ACGTTCACGTGTGTAT, the “relative binding free energy” value was 0.15 kcal/mol.

Take TAGTTCACGTGCCTGT: the “relative binding free energy” value came to 0.29 kcal/mol.

For the sequence AGGTCCACGTGGGGTG, the “relative binding free energy” value was -0.19 kcal/mol.

The values above are taken from the BET-seq Pho4 binding data (Le et al. 2018).
